# PubChem BioAssay AID504466 (National Center for Advancing Translational Sciences (NCATS), 2011)
# Screen size: about 330,000 compounds; about 4,200 (1.3%) were called active. The inconclusive results got no clear call from the source; some entries with a clear call stand among them for comparison. The call rests on the fitted dose curve; in most records, active means well fitted activation curve with a large enough effect; inconclusive means small, poorly fitted or top-dose-only effect; inactive means no such curve, though single readings can be large or run the other way. Potencies of inconclusive entries are doubtful fits and often do not repeat.
# Test: qHTS screen for small molecules that induce genotoxicity in human embryonic kidney (HEK293T) cells expressing luciferase-tagged ELG1; further: nearly all actives have a fitted effect of over 60% in size; on activity change, positive = activation: % of control where 0% means no effect
# Details: HEK293T ELG1-luciferase reporter, luminescence, 16 h; series mostly up to 46 µM; activity change, positive = activation: at the top concentration
# Method in brief: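 HEK293T cells expressing luciferase-tagged ELG1 were treated with compound or DMSO for 16 hr at 37°C. Luciferase activity was then read after 30 min with ONE-Glo at room temperature; rising signal flags genetic stress.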
# Potency means the concentration at half of the fitted maximal effect; tags describe the fitted curve by direction and shape.
Structure (SMILES),Potency,"activity change, positive = activation"
c1ccc(-c2cn3c4c(sc3n2)CCCC4)cc1,active: 0.082 µM,–
CCOC(=O)c1cccc(C2=CC(=O)C[C@H](c3ccc(OC)cc3)C2)c1,"inconclusive: 25.9 µM [activator, partial curve, poor fit]",–
COc1ccc(C(=O)N2CCc3cc(OC)c(OC)cc3C2c2ccc(OC)c(OC)c2)cc1OC (stereo unspecified),–,inactive: 3.48%
O=C(Nc1nnc(N2CCCCCC2)s1)c1cc(-c2ccc(Br)cc2)on1,–,inactive: -4.21%
Nc1nnc(SCC(=O)c2ccco2)s1,–,inactive: 0.733%
Cc1ccc(O)c(-c2cc(-c3ccc(F)cc3)no2)c1,active: 2.06 µM,–
Cc1[nH]c2ccccc2c1C(=O)COC(=O)C1CCC(=O)N1 (stereo unspecified),–,inactive: 0.173%
Cc1nc(-c2ccc([N+](=O)[O-])cc2)sc1C(=O)O,"inconclusive: 16.4 µM [activator, partial curve, poor fit]",–
O=C(NC(=S)Nc1ccc(NC(=O)c2ccco2)cc1)c1ccccc1,"inconclusive: 29.1 µM [activator, partial curve, poor fit]",–
Cc1nnc2ccc(-c3ccc(NS(C)(=O)=O)cc3)nn12,"inconclusive: 20.6 µM [activator, single point]",–
CCN(CC)c1ccc(NC(=O)c2cccnc2)c(C)c1,–,inactive: 0.389%
CC(=O)N(C)c1ccc(N=NC2C(=O)N(C(N)=S)N=C2C)cc1 (stereo unspecified),"inconclusive: 4.11 µM [activator, partial curve]",–
C/C(=N/NC(=O)c1ccoc1C)c1ccc(N2CCOCC2)cc1,"inconclusive: 14.6 µM [activator, partial curve, poor fit]",–
CCOC(=O)Cc1csc(NC(=O)c2sc3nc4c(C)cc(C)cc4cc3c2N)n1,"inconclusive: 25.9 µM [activator, partial curve, poor fit]",–
CCCC(=O)Nc1ccc(NC(=O)c2ccccn2)cn1,"inconclusive: 6.51 µM [activator, partial curve, poor fit]",–
O=C(/C=C/c1ccco1)NC(=S)Nc1cc(-c2nc3ccccc3s2)ccc1Cl,"inconclusive: 6.51 µM [activator, single point]",–
Cc1nnc(SCC(=O)c2ccc(C(C)C)cc2)s1,–,inactive: 9.79%
CCOC(=O)C1CCN(C(=O)CSc2cc(=O)n(CC)c3ccccc23)CC1,"inconclusive: 16.4 µM [activator, partial curve, poor fit]",–
C(=N\Nc1nncc2ccccc12)/c1ccccn1,active: 0.366 µM,–
CCOc1ccccc1NC(=O)CSc1nnc(-c2cnccn2)n1C,–,inactive: 0.111%
Cc1ccn2cc(C(=O)Nc3ccc4c(c3)OCCO4)nc2c1,active: 5.8 µM,–
